Measurements from the supplement of paper PMC10126150.
Sequences with one replicate were seen in a single cluster, so their values are uncertain.

System: ATP
Test: switch fluorescence ratio, 500 uM ATP over buffer (Cy3 cluster intensity, sum of 5 cycles each) (fold (ratio)); higher = stronger signal-on switching upon ATP binding; sequences stand for … in TCGTCGGCAGCGTCAGATGTGTATAAGAGACAGTTTTTTTTTTTTTTTTTTTTTTTTT…TC
Details: aptamer strand: ATP DNA aptamer (quencher-CACCTGGGGGAGTATTGCGGAGGAAGG + anchor), 100 nM annealed; ATP concentration: 500 uM; one replicate
Method in brief: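 Imaging in selection buffer was followed by imaging after 15 min with 500 uM ATP at 22 °C, for Cy3-labelled switching-strand clusters annealed to 100 nM quencher-labelled ATP aptamer on a modified Illumina MiSeq flow-cell. Five of these buffer/ATP cycles ran, separated by NaOH stripping and re-annealing. The fluorescence ratio per cluster is summed target-cycle over summed buffer-cycle Cy3 intensity, averaged per switch-domain sequence; clusters outside 100-1000 RFU were removed.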
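Also: ATP exposure 15 min at 22 °C before imaging.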

Question: For CACACATTAC, which switch fluorescence ratio is on record?
Answer: Its switch fluorescence ratio is 1.69.

Question: For CACACCCTTT, which switch fluorescence ratio is on record?
Answer: Its switch fluorescence ratio is 1.09.

Question: Which switch fluorescence ratio does the source give for CACACCGGGA here?
Answer: Its switch fluorescence ratio is 1.01.

Question: With CACACCTTCA as the sequence, how does the switch fluorescence ratio read?
Answer: The switch fluorescence ratio was 2.2.

Question: With CACACGCTTT as the sequence, how does the switch fluorescence ratio read?
Answer: The switch fluorescence ratio was 1.17.

Question: With CACACGGATA as the sequence, how does the switch fluorescence ratio read?
Answer: Its switch fluorescence ratio is 1.06.

Question: For CACACGGGCG, which switch fluorescence ratio is on record?
Answer: The switch fluorescence ratio was 1.14.

Question: With CACACGGGCT as the sequence, how does the switch fluorescence ratio read?
Answer: Its switch fluorescence ratio is 0.996.

Question: How did the switch fluorescence ratio turn out when CACACTTAAA was run?
Answer: The switch fluorescence ratio was 1.01.

Question: CACACTTTT was tested. Which switch fluorescence ratio did it give?
Answer: Its switch fluorescence ratio is 1.01.

Question: How did the switch fluorescence ratio turn out when CACAGAACGT was run?
Answer: The switch fluorescence ratio was 1.11.

Question: With CACAGAGTTG as the sequence, how does the switch fluorescence ratio read?
Answer: The switch fluorescence ratio was 1.02.

Question: For CACAGCTAAG, which switch fluorescence ratio is on record?
Answer: Its switch fluorescence ratio is 1.09.

Question: Which switch fluorescence ratio does the source give for CACAGGCATC here?
Answer: The switch fluorescence ratio was 0.989.

Question: With CACAGGGTCC as the sequence, how does the switch fluorescence ratio read?
Answer: Its switch fluorescence ratio is 1.03.

Question: For CACAGGTGAT, which switch fluorescence ratio is on record?
Answer: Its switch fluorescence ratio is 2.8.

Question: Which switch fluorescence ratio does the source give for CACAGTTGGG here?
Answer: The switch fluorescence ratio was 0.99.

Question: For CACATAAG, which switch fluorescence ratio is on record?
Answer: The switch fluorescence ratio was 1.03.

Question: Which switch fluorescence ratio does the source give for CACATCGGGA here?
Answer: The switch fluorescence ratio was 1.03.

Question: Which switch fluorescence ratio does the source give for CACATGAGTC here?
Answer: The switch fluorescence ratio was 1.03.

Question: For CACATTCAAT, which switch fluorescence ratio is on record?
Answer: The switch fluorescence ratio was 0.998.

Question: How did the switch fluorescence ratio turn out when CACATTGAAA was run?
Answer: Its switch fluorescence ratio is 0.997.

Question: CACCATACGC was tested. Which switch fluorescence ratio did it give?
Answer: Its switch fluorescence ratio is 1.34.

Question: With CACCCAATCG as the sequence, how does the switch fluorescence ratio read?
Answer: Its switch fluorescence ratio is 1.18.

Question: For CACCCGCTAT, which switch fluorescence ratio is on record?
Answer: The switch fluorescence ratio was 5.04.

Question: With CACCCGGGTT as the sequence, how does the switch fluorescence ratio read?
Answer: Its switch fluorescence ratio is 1.08.

Question: Which switch fluorescence ratio does the source give for CACCCTAAGC here?
Answer: Its switch fluorescence ratio is 1.07.

Question: How did the switch fluorescence ratio turn out when CACCGACGGG was run?
Answer: Its switch fluorescence ratio is 1.13.

Question: CACCGATAGC was tested. Which switch fluorescence ratio did it give?
Answer: The switch fluorescence ratio was 1.47.

Question: For CACCGATGTA, which switch fluorescence ratio is on record?
Answer: Its switch fluorescence ratio is 1.05.

Question: CACCGCACGT was tested. Which switch fluorescence ratio did it give?
Answer: The switch fluorescence ratio was 2.47.

Question: CACCGGGCAA was tested. Which switch fluorescence ratio did it give?
Answer: Its switch fluorescence ratio is 1.29.

Question: Which switch fluorescence ratio does the source give for CACCGGGCGG here?
Answer: The switch fluorescence ratio was 0.973.

Question: With CACCGGGTTT as the sequence, how does the switch fluorescence ratio read?
Answer: Its switch fluorescence ratio is 1.12.

Question: Which switch fluorescence ratio does the source give for CACCGTGGCA here?
Answer: The switch fluorescence ratio was 0.996.

Question: With CACCTACCGG as the sequence, how does the switch fluorescence ratio read?
Answer: Its switch fluorescence ratio is 1.07.

Question: CACCTATGAT was tested. Which switch fluorescence ratio did it give?
Answer: The switch fluorescence ratio was 1.34.

Question: With CACCTCGATC as the sequence, how does the switch fluorescence ratio read?
Answer: Its switch fluorescence ratio is 1.14.

Question: CACCTTCCGA was tested. Which switch fluorescence ratio did it give?
Answer: Its switch fluorescence ratio is 1.95.

Question: CACGAAAAGA was tested. Which switch fluorescence ratio did it give?
Answer: The switch fluorescence ratio was 1.2.

Question: CACGACGCTG was tested. Which switch fluorescence ratio did it give?
Answer: The switch fluorescence ratio was 1.53.

Question: CACGACTGCG was tested. Which switch fluorescence ratio did it give?
Answer: Its switch fluorescence ratio is 0.955.

Question: CACGAGAGGT was tested. Which switch fluorescence ratio did it give?
Answer: Its switch fluorescence ratio is 1.02.

Question: CACGAGAGTA was tested. Which switch fluorescence ratio did it give?
Answer: Its switch fluorescence ratio is 1.04.

Question: CACGAGCCTT was tested. Which switch fluorescence ratio did it give?
Answer: The switch fluorescence ratio was 1.08.

Question: With CACGAGGGGC as the sequence, how does the switch fluorescence ratio read?
Answer: The switch fluorescence ratio was 0.988.

Question: How did the switch fluorescence ratio turn out when CACGATCCAT was run?
Answer: The switch fluorescence ratio was 0.986.

Question: CACGATGAAC was tested. Which switch fluorescence ratio did it give?
Answer: The switch fluorescence ratio was 1.1.

Question: How did the switch fluorescence ratio turn out when CACGCCAGTC was run?
Answer: Its switch fluorescence ratio is 1.03.

Question: How did the switch fluorescence ratio turn out when CACGCGGGAA was run?
Answer: Its switch fluorescence ratio is 1.

Question: Which switch fluorescence ratio does the source give for CACGCGTTAG here?
Answer: The switch fluorescence ratio was 1.01.

Question: How did the switch fluorescence ratio turn out when CACGCTCTGG was run?
Answer: Its switch fluorescence ratio is 1.08.

Question: For CACGGCATTA, which switch fluorescence ratio is on record?
Answer: Its switch fluorescence ratio is 1.28.

Question: With CACGGCCATG as the sequence, how does the switch fluorescence ratio read?
Answer: The switch fluorescence ratio was 1.03.

Question: How did the switch fluorescence ratio turn out when CACGGCCTAG was run?
Answer: Its switch fluorescence ratio is 0.978.

Question: How did the switch fluorescence ratio turn out when CACGTAATAT was run?
Answer: The switch fluorescence ratio was 1.79.

Question: For CACGTAGACG, which switch fluorescence ratio is on record?
Answer: The switch fluorescence ratio was 1.02.

Question: CACGTCGTTA was tested. Which switch fluorescence ratio did it give?
Answer: Its switch fluorescence ratio is 1.03.

Question: For CACGTGCGAC, which switch fluorescence ratio is on record?
Answer: The switch fluorescence ratio was 1.12.

Question: How did the switch fluorescence ratio turn out when CACGTGTTTC was run?
Answer: The switch fluorescence ratio was 0.998.

Question: With CACTAACGAC as the sequence, how does the switch fluorescence ratio read?
Answer: The switch fluorescence ratio was 1.32.

Question: For CACTATATCA, which switch fluorescence ratio is on record?
Answer: The switch fluorescence ratio was 1.05.

Question: For CACTATTATC, which switch fluorescence ratio is on record?
Answer: Its switch fluorescence ratio is 0.978.

Question: For CACTATTGGG, which switch fluorescence ratio is on record?
Answer: The switch fluorescence ratio was 0.959.

Question: For CACTATTTCA, which switch fluorescence ratio is on record?
Answer: The switch fluorescence ratio was 0.985.

Question: How did the switch fluorescence ratio turn out when CACTCAAGG was run?
Answer: Its switch fluorescence ratio is 1.04.

Question: CACTCAATTG was tested. Which switch fluorescence ratio did it give?
Answer: The switch fluorescence ratio was 1.03.

Question: CACTCACATT was tested. Which switch fluorescence ratio did it give?
Answer: The switch fluorescence ratio was 1.33.

Question: Which switch fluorescence ratio does the source give for CACTCCAATC here?
Answer: The switch fluorescence ratio was 1.54.

Question: How did the switch fluorescence ratio turn out when CACTCCGGGT was run?
Answer: The switch fluorescence ratio was 1.23.

Question: For CACTCGAGGA, which switch fluorescence ratio is on record?
Answer: Its switch fluorescence ratio is 0.99.

Question: With CACTCTGTTG as the sequence, how does the switch fluorescence ratio read?
Answer: Its switch fluorescence ratio is 0.998.

Question: For CACTCTTATG, which switch fluorescence ratio is on record?
Answer: The switch fluorescence ratio was 0.988.

Question: CACTGAAGCC was tested. Which switch fluorescence ratio did it give?
Answer: The switch fluorescence ratio was 1.05.

Question: For CACTGACCCC, which switch fluorescence ratio is on record?
Answer: The switch fluorescence ratio was 1.26.

Question: Which switch fluorescence ratio does the source give for CACTGAGTCT here?
Answer: Its switch fluorescence ratio is 1.05.

Question: How did the switch fluorescence ratio turn out when CACTGCAGGC was run?
Answer: The switch fluorescence ratio was 1.6.

Question: For CACTGCCTTG, which switch fluorescence ratio is on record?
Answer: The switch fluorescence ratio was 1.05.

Question: For CACTGCGA, which switch fluorescence ratio is on record?
Answer: The switch fluorescence ratio was 1.51.

Question: For CACTGGGCCT, which switch fluorescence ratio is on record?
Answer: The switch fluorescence ratio was 1.05.

Question: CACTGGTCCG was tested. Which switch fluorescence ratio did it give?
Answer: The switch fluorescence ratio was 1.1.

Question: CACTGTGGGG was tested. Which switch fluorescence ratio did it give?
Answer: Its switch fluorescence ratio is 0.992.

Question: With CACTGTGTCG as the sequence, how does the switch fluorescence ratio read?
Answer: The switch fluorescence ratio was 1.09.

Question: For CACTGTT, which switch fluorescence ratio is on record?
Answer: The switch fluorescence ratio was 1.09.

Question: CACTGTTTCA was tested. Which switch fluorescence ratio did it give?
Answer: Its switch fluorescence ratio is 0.993.

Question: CACTTAGTTC was tested. Which switch fluorescence ratio did it give?
Answer: Its switch fluorescence ratio is 1.04.

Question: With CACTTCCGCA as the sequence, how does the switch fluorescence ratio read?
Answer: The switch fluorescence ratio was 1.34.

Question: For CACTTGATC, which switch fluorescence ratio is on record?
Answer: Its switch fluorescence ratio is 1.01.

Question: With CACTTGTCAT as the sequence, how does the switch fluorescence ratio read?
Answer: The switch fluorescence ratio was 0.986.

Question: For CACTTGTCTC, which switch fluorescence ratio is on record?
Answer: Its switch fluorescence ratio is 0.98.

Question: With CACTTGTTTA as the sequence, how does the switch fluorescence ratio read?
Answer: The switch fluorescence ratio was 0.975.

Question: With CACTTTACGT as the sequence, how does the switch fluorescence ratio read?
Answer: Its switch fluorescence ratio is 1.32.

Question: CAGAACATAG was tested. Which switch fluorescence ratio did it give?
Answer: Its switch fluorescence ratio is 1.01.

Question: For CAGAACGGTG, which switch fluorescence ratio is on record?
Answer: The switch fluorescence ratio was 1.07.

Question: With CAGAAGCAGG as the sequence, how does the switch fluorescence ratio read?
Answer: The switch fluorescence ratio was 1.17.

Question: For CAGACAAGTT, which switch fluorescence ratio is on record?
Answer: The switch fluorescence ratio was 1.01.

Question: For CAGACAATAG, which switch fluorescence ratio is on record?
Answer: The switch fluorescence ratio was 1.1.

Question: For CAGACATCCA, which switch fluorescence ratio is on record?
Answer: Its switch fluorescence ratio is 1.

Question: How did the switch fluorescence ratio turn out when CAGACGAGGG was run?
Answer: Its switch fluorescence ratio is 0.954.

Question: How did the switch fluorescence ratio turn out when CAGACTAGAA was run?
Answer: Its switch fluorescence ratio is 0.996.
